# Reference: PubChem BioAssay AID1346428 (National Center for Advancing Translational Sciences (NCATS), 2018)
# The whole screen tested about 48,000 compounds, of which about 1,200 (2.5%) were called active. About 2% were inconclusive and are not listed.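 The calls were made as follows: active = activation of at least 60% and not above a set upper limit (about 1 call in 100 departs from these limits); inconclusive = activation of 40% to 60%, or above that upper limit; inactive = activation under 40%.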 This is one part of the list.
# Target: Probable G-protein coupled receptor 32 (Homo sapiens) (UniProt O75388)
# Assay: qHTS for Agonists of Human Resolvin D1 Receptor DRV1
# Conditions: CHO-K1 GPR32 beta-arrestin PathHunter luminescence, 90 min; at 76.9 µM; active compounds read high; zero percent set by DMSO-only wells
# In short: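 Beta-arrestin recruitment read-out: luminescence from complemented beta-Gal in CHO-K1 GPR32 PathHunter cells, measured 1 h after detection reagent at ambient temperature following 90 min compound exposure at 37 °C; DMSO served as basal (EC0) control.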
# Chain of UniProt O75388 (O75388 whole entry, looked up): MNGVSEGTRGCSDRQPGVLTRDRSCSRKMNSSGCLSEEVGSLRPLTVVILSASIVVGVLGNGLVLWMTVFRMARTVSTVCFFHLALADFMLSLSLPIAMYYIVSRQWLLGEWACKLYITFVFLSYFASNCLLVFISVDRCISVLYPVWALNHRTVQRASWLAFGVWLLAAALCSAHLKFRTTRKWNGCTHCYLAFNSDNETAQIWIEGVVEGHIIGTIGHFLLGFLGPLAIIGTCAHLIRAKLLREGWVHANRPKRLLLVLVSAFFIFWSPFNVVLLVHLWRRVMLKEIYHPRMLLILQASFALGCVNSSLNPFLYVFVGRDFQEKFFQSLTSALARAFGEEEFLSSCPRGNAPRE
row,Structure (SMILES),activation
1,COc1cccc(CN2C(=O)C3(SCC(=O)N3c3cc(C)cc(C)c3)c3ccccc32)c1 (stereo not given),inactive: -13.4%
2,O=C(c1ccc2c(c1)OCCO2)N(Cc1cccnc1)c1nc2ccc(Cl)cc2s1,inactive: 3.15%
3,COc1ccccc1N1CCN(S(=O)(=O)c2cc(-c3cc(C)no3)ccc2C)CC1,inactive: -4.73%
4,Cc1ccc(-c2nnn(CC(=O)N(CC(=O)NCCC(C)C)c3ccc(F)cc3)n2)cc1,inactive: -5.33%
5,CCC(C)NC(=O)c1ccccc1NC(=O)C1CCN(S(=O)(=O)Cc2ccccc2)CC1 (stereo not given),inactive: 1.66%
6,COc1ccc(S(=O)(=O)Nc2cc(-c3cn4cccc(C)c4n3)ccc2C)cc1C,inactive: 0.0923%
7,CCCCCOC(=O)c1ccc(Nc2nc(C(=O)OCC)nc3ccccc23)cc1,inactive: -6.24%
8,Cc1ccc(C(C)C)c(OCC(=O)Nc2nc3c(s2)CCCC3)c1,inactive: -23.6%
9,CCN(CC)C(=O)c1cccc(C)c1,inactive: 12%
10,Cc1coc2c1c(C)cc1oc(=O)c(CC(=O)NCc3ccc(Cl)cc3)c(C)c12,inactive: -8.57%
11,O=C(NCCc1ccc(F)cc1)C(=O)NCC(c1ccc2c(c1)OCO2)N1CCOCC1 (stereo not given),inactive: -17.5%
12,Cc1ccc2nc(-c3c[nH]c4ccccc34)c(Nc3ccccc3)n2c1,inactive: -5.12%
13,CCOC(=O)c1nc(Nc2ccccc2C)c2ccccc2n1,inactive: -4.82%
14,O=C(NCc1noc2ccccc12)Nc1ccc(F)cc1F,inactive: 6.39%
15,Cc1cccc(NC(=O)C2CCCN(c3nnc(-n4c(C)ccc4C)s3)C2)c1C (stereo not given),inactive: -19.4%
16,CCOc1cccc(C2c3[nH]c4ccccc4c3CCN2C(=O)CCc2ccccc2)c1 (stereo not given),inactive: -37.5%
17,CCN(CC)c1ccc(C(=O)N2CCC(c3ccncc3)CC2)cc1,inactive: 2.34%
18,O=C(Nc1nc2ccc(Cl)cc2s1)c1ccc(S(=O)(=O)N2CCCC2)cc1,inactive: -0.844%
19,CCN(CC)S(=O)(=O)c1ccc2nc(NC(=O)c3ccc(Br)o3)sc2c1,inactive: 21.4%
20,CC1CC2C3CCC4=CC(=O)C=C[C@]4(C)[C@@]3(F)[C@@H](O)C[C@]2(C)[C@@]1(O)C(=O)CO (stereo not given in full),inactive: 10.6%
21,CCCN(C(=O)Cn1c(=O)oc2cc(Cl)ccc21)c1ccc(C(C)C)cc1,inactive: -24.3%
22,CCOC(=O)C1CCCN(C(=O)c2ccc3c(c2)N(Cc2cccc(Cl)c2)C(=O)c2ccccc2S3(=O)=O)C1 (stereo not given),inactive: -35.1%
23,COc1ccc(C)cc1NC(=O)CN1C(=O)COc2ccc(S(=O)(=O)N3CCCCCC3)cc21,inactive: -27.8%
24,CCCN(CCC)S(=O)(=O)c1ccc(C(=O)O)cc1,inactive: 2.77%
25,CCc1ccc(S(=O)(=O)c2cn(C)c3cc(OC)c(OC)cc3c2=O)cc1,inactive: 19.3%
26,CC(C)c1ccc(NC(=O)CN2C(=O)c3cccc4cccc2c34)cc1,inactive: 10.1%
27,CCC1CCc2c(sc(NC(=O)C3c4ccccc4Oc4ccccc43)c2C#N)C1 (stereo not given),inactive: 3.14%
28,Cc1cc(Nc2cc(Cl)ccc2C)n2nc(Cc3ccccc3)nc2n1,inactive: -12%

row,Structure (SMILES),activation
1,Cc1ccc(C)c(CN2C(=O)c3ccccc3S(=O)(=O)c3ccc(C(=O)N4CCN(C)CC4)cc32)c1,inactive: -13.6%
2,O=C(CN1C(=O)COc2ccc(S(=O)(=O)N3CCCCC3)cc21)NCc1ccccc1Cl,inactive: -20.8%
3,CCOC(=O)c1ccc(Nc2nc(C(=O)OCC)nc3ccccc23)cc1,inactive: -8.63%
4,CCOc1ccccc1CNC(=O)CSc1n[nH]c(-c2ccccc2Cl)n1,inactive: -13.3%
5,COc1ccc(CNC(=O)Cc2coc3ccc(C(C)C)cc23)cc1,inactive: -15.8%
6,Cc1cc(C)c(S(=O)(=O)NCC(c2ccc(N(C)C)cc2)N2CCc3ccccc32)c(C)c1 (stereo not given),inactive: -39.8%
7,Cc1cc(OCCn2cc(C(=O)c3ccco3)c3ccccc32)ccc1Cl,inactive: -13.8%
8,COc1ccccc1NC(=O)CSc1oc(-c2ccco2)nc1S(=O)(=O)c1ccc(Br)cc1,inactive: -10.5%
9,COc1cccc(CNC(=O)CCc2nc(-c3ccc(C)cc3)no2)c1,active: 92.5%
10,COc1ccc(-c2nnc(SCC(=O)Oc3cccc(C)c3C)o2)cc1,inactive: -3.06%
11,CCOc1ccc(NC(=O)c2cc(CN3CCCC3)on2)cc1,inactive: 3.02%
12,O=C(Cn1c(=O)oc2cc(S(=O)(=O)NCc3ccccc3)ccc21)NCc1ccc(F)cc1,active: 111%
13,COc1ccc(/C=C/C(=O)Nc2ccc(Cl)c(Cl)c2)cc1OC,inactive: 2.06%
14,Cc1c(C(=O)NCc2ccc(F)cc2)sc2nc3n(c(=O)c12)CCC3,inactive: -5.06%
15,CC(=O)Nc1ccc(NC(=O)Nc2sc3nc4n(c(=O)c3c2C)CCC(C)CC4)cc1 (stereo not given),inactive: -3.58%
16,COc1ccc(-c2ccc(=O)n(CC(=O)Nc3ccc(N(C)C)cc3)n2)cc1,inactive: -26.2%
17,O=C(Cn1nc(C(F)(F)F)c2c1CCCC2)Nc1ccc(F)c(Cl)c1,inactive: 43.1%
18,CCOc1ccc2oc(=O)cc(CN3CCN(C(=O)c4ccc(Cl)cc4)CC3)c2c1,inactive: -19.6%
19,CCCCc1nn2c(=O)cc(COC(=O)CNC(=O)c3ccccc3C)nc2s1,inactive: -1.5%
20,Cc1c(NC(=O)c2cc3ccccc3o2)cccc1-c1nc2ccccc2o1,inactive: 2.84%
21,Cc1cccc(N(C)C(=O)C2CCN(S(=O)(=O)c3cccc4nonc34)CC2)c1,inactive: -13.2%
22,COc1ccc(OC)c(NC(=O)c2ccc(-c3nc(COc4ccccc4)c(C)o3)cc2)c1,inactive: -5.91%
23,Cc1ccc2nc(Nc3ccc(Br)cc3)nc(-c3ccccc3)c2c1,inactive: -30.1%
24,CSc1ccc(C2c3c(oc4ccc(F)cc4c3=O)C(=O)N2c2ccc(C)cn2)cc1 (stereo not given),inactive: -5.09%
25,COc1ccc(OC)c(NC(=O)Cn2cc(C(=O)c3cccs3)c3ccccc32)c1,inactive: -3.6%
26,Cc1ccc(C(C)C)c(OCCSc2nc(-c3cccs3)nc3cc(=O)[nH]n23)c1,inactive: -2.45%
27,CCc1cccc(CC)c1NC(=O)Cc1csc(C)n1,inactive: -11.6%
